Measured values: PubChem BioAssay AID1671193 (National Center for Advancing Translational Sciences (NCATS), 2021)
Out of some 150,000 compounds screened, about 180 (0.12%) were called active. Inconclusive means that the source gave no clear call. Such entries were picked first, then a sample of the others. Calls follow the shape of the dose curve; as a rule, active = well fitted cell-killing curve with a large enough effect; inconclusive = small, poorly fitted or top-dose-only effect, or effect the other way; inactive = flat fitted curve, though single readings scatter. A potency beside an inconclusive call is a rough fit, not a confirmed value.

Assay: GF-AFC viability counterscreen for inhibitors of alpha-synuclein gene (SNCA) expression; also: nearly all actives have a fitted effect of over 30% in size;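 as to activity change, negative = cytotoxicity: 0% = DMSO-treated cells and -100% = medium-only wells without cells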
Conditions: HEK-293-SNCA-luc viability, GF-AFC fluorescence, 24 h; activity change, negative = cytotoxicity: at 57.1 µM (top of the series) unless noted
Method in brief: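 Cytotoxicity counterscreen: after 24 h compound treatment of genome-edited SNCA-luciferase HEK-293 cells, live-cell protease substrate GF-AFC read by fluorescence after 30 min; activity scaled between DMSO (0%) and medium-only (-100%), curves Hill-fitted.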
Potency is read from the fitted curve at half-maximal effect; tags tell the direction and shape of the fitted curve.

| Compound | Potency | activity change, negative = cytotoxicity |
| --- | --- | --- |
| Cc1ccc(NC(=O)CCS(=O)(=O)c2cccc3nonc23)cc1Cl | inconclusive: 1.41 µM [rising, partial curve, poor fit] |  |
| CC1CCCCN1S(=O)(=O)c1ccc(C(=O)Nc2sc3c(c2C(N)=O)CC(C)(C)NC3(C)C)cc1 (configuration not stated) | inconclusive: 12.6 µM [cytotoxic, partial curve, poor fit] |  |
| COc1ccc(-c2nnc([C@H]3CCN(Cc4cccc(C#N)c4)C3)o2)cc1 | inconclusive: 12.6 µM [cytotoxic, full curve, poor fit] |  |
| CC(C)n1cc2cc(C(=O)N3CCSCC3)sc2c1 | inconclusive: 7.08 µM [cytotoxic, single point] |  |
| COc1ccccc1OCCSc1nc2ccccc2n1CC(=O)N1CCOCC1 | inconclusive: 20 µM [cytotoxic, single point] |  |
| Cc1ncoc1C(=O)N1CCCCCNC(=O)[C@@H]2CCC[C@@H]21 | inactive |  |
| CC(C)(C)c1ccc(NC(=O)O[C@@H]2CO[C@H]3[C@@H]2OC[C@@H]3Nc2nccc(-c3ccccc3)n2)cc1 | inactive |  |
| COc1ccccc1-n1c(=O)c(C(=O)N2CCN(C(=O)Cc3ccccn3)CC2)nc2cccnc21 | inactive |  |
| CN(CC(=O)N1CCC(CCOc2ccccc2F)C1)S(=O)(=O)c1cccs1 (configuration not stated) | inactive |  |
| COc1ccc([C@H]2OC[C@H]3O[C@@H](O[C@H]4[C@@H]2NC[C@@H]4O)[C@H](O)[C@H]3O)cc1 | inconclusive: 5.85 µM [cytotoxic, partial curve, poor fit] |  |
| COc1cccc(/C=C/c2nc(C#N)c(NCCc3ccc(OC)c(OC)c3)o2)c1 | inconclusive: 22.4 µM [rising, partial curve, poor fit] |  |
| O=C(c1ccc(-c2ncc3cnc(C4=CCOCC4)cn23)cc1)N1CC[S+](=O)([O-])CC1 | inactive |  |
| COC(=O)[C@@H]1Cc2c([nH]c3ccccc23)[C@H]2C[C@@H](NCc3cccnc3)C[C@@H](c3ccc(C(F)(F)F)cc3)N21 | inconclusive: 39.8 µM [cytotoxic, single point] |  |
| Cn1ccc2c(C(=O)NCc3cccnc3)nc(-c3cccc4cc[nH]c34)cc21 | inconclusive: 31.6 µM [cytotoxic, partial curve, poor fit] |  |
| CCc1cccc(C)c1NS(=O)(=O)c1c(C(=O)N2CCC(C)CC2)c(C)n(C)c1C | inconclusive: 14.1 µM [cytotoxic, partial curve, poor fit] |  |
| CCn1nnc2c(N3CCOCC3)nc(-c3ccc(NC(=O)Nc4ccc(C(=O)N5CCN(C)CC5)cc4)cc3)nc21 | inconclusive: 0.947 µM [cytotoxic, full curve] |  |
| CC(C)OC(=O)[C@H](C)N[P@](=O)(OC[C@H]1O[C@@H](n2ccc(=O)[nH]c2=O)[C@](C)(F)[C@H]1O)Oc1ccccc1 | inconclusive: 27.1 µM [cytotoxic, partial curve, poor fit] |  |
| c1cc(N2CCOCC2)ncc1-c1noc([C@@H]2CCCN2)n1 | inactive |  |
| Cc1ccc(OCc2nc(C3CN(C(=O)c4cc(C)n(C)n4)C3)no2)cc1 | inconclusive: 7.08 µM [cytotoxic, single point] |  |

| Compound | Potency | activity change, negative = cytotoxicity |
| --- | --- | --- |
| CC1CCCN(C(=O)CSc2c3c(nc4cc(Cl)ccc24)CCCC3)C1 (configuration not stated) | inconclusive: 28.2 µM [cytotoxic, single point] |  |
| COc1ccc(Cn2c(C(=O)O)c(CNCc3ccccc3F)c3ccc(OC)cc32)cc1 | inconclusive: 31.6 µM [cytotoxic, partial curve, poor fit] |  |
| COc1ccccc1CN1CCCC2(CCN(C(=O)c3c(C)noc3C)CC2)C1 | inconclusive: 7.08 µM [cytotoxic, single point] |  |
| O=C(C1CCCCCC1)N1CCC(n2cc(-c3ccccc3)nn2)CC1 | inconclusive: 39.8 µM [cytotoxic, single point] |  |
| COc1ccc(-c2ccc3c(N)c(C(=O)Nc4ccc(C(F)(F)F)cc4)sc3n2)cc1OC | inconclusive: 15.8 µM [rising, partial curve, poor fit] |  |
| O=C(NCc1ccc(Cl)nc1)c1c[nH]c2cccnc12 | inconclusive: 12.6 µM [cytotoxic, partial curve, poor fit] |  |
| C=C(C)C(=O)O[C@H]1[C@H]2C(=C)C(=O)O[C@@H]2C[C@@H](C)[C@@H]2O[C@@H]2C(=O)[C@](C)(O)[C@@H]1OC(C)=O | inconclusive: 10.3 µM [cytotoxic, single point] |  |
| O=C(CN1C(=O)C(c2ccc(F)cc2)=NC12CCCCCC2)Nc1ccccc1Cl | inconclusive: 35.5 µM [cytotoxic, partial curve, poor fit] |  |
| Cc1ncsc1CN1CCC2(CC1)NCCc1c2[nH]c2ccccc12 |  | inactive: 3.87% [at 12.5 µM] |
| O=C1NCc2ccccc2CC12CCCN(Cc1cc(F)ccc1O)C2 (configuration not stated) | inactive |  |
| Cc1nc2cccnc2n1-c1cccc(C(=O)N2CCN(c3cccc(Cl)c3)CC2)c1 | inconclusive: 39.8 µM [cytotoxic, single point] |  |
| COc1ccc(-c2nnc(SCC(=O)NCCc3ccc(OC)c(OC)c3)nc2-c2ccc(OC)cc2)cc1 | inconclusive: 8.91 µM [cytotoxic, partial curve, poor fit] |  |
| O=C(O)[C@H]1Cc2ccccc2CN1 | inconclusive: 0.0008 µM |  |
| C[C@H]1[C@@H]2[C@@H](O)C([C@H](C)C(=O)N3CCCC3)CC[C@@]2(C)CC[C@@H]1NC(=O)c1ccccc1 (some centres not stated) | inactive |  |
| Cc1c(NC(=O)c2ccc(-c3cccc([N+](=O)[O-])c3)o2)cccc1-c1nc2cc(Cl)ccc2o1 | inconclusive: 28.2 µM [rising, partial curve, poor fit] |  |
| CCn1ncc(N2CCC(NC(=O)c3cccc(OC)c3)CC2)cc1=O | inconclusive: 5.01 µM [cytotoxic, single point] |  |
| COc1ccc(-c2nc(C)c(CCNS(=O)(=O)c3cc(Cl)ccc3Cl)s2)cc1 | inconclusive: 39.8 µM [cytotoxic, single point] |  |
| COc1cc(OC)cc(OCc2nc3c(n2Cc2ccccc2)C(=O)N(Cc2ccccc2F)CCN3)c1 | inconclusive: 35.5 µM [cytotoxic, single point] |  |
